We go through 17 compounds from the supplement of paper PMC10037445.

In test [1] the test system is RAW-Dual. Kind of test: NF-kB SEAP reporter activity, fold change vs agonist alone; higher = enhanced NF-kB activity. Conditions: cytotoxicity flag (confluency mask): not cytotoxic. A digest of the protocol: (§1)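 Cytotoxic wells were those whose IncuCyte confluency was below 70% of agonist controls in both mask sets. The cells were RAW-Dual macrophages at 50,000 cells/well in DMEM on 384-well plates, dosed with 50 nL of library stock by pin tool, stimulated with a PRR agonist 1 h later, and kept at 37 °C, 5% CO2 for 20 hours. IRF and NF-κB reporter activity, as fold change over agonist-alone wells, came from supernatant read by QuantiLuc luminescence and QuantiBlue absorbance, respectively.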

Test [2] deals with RAW-Dual. Description: NF-kB SEAP reporter activity, fold change vs agonist alone; cytotoxicity flag (confluency mask): not cytotoxic; higher = enhanced NF-kB activity. The method in brief:
as §1

[3] abbreviates: library stock concentration (final ~1000-fold dilution): 10 mM, agonist: Imiquimod (TLR7) […].
Setting [4] is: library stock concentration (final ~1000-fold dilution): 10 mM, agonist: MPLA (TLR4) […].
The mark [5] stands for this setting: agonist: ODN 1826 (TLR9) 0.5 ug/mL.
The mark [6] stands for this setting: agonist: Pam2CSK4 (TLR2/6) 0.1 ug/mL.
The mark [7] stands for this setting: agonist: Pam3CSK4 (TLR2/1) 0.1 ug/mL.

In all, about 2,900 compounds were measured (“NF-kB SEAP reporter activity, fold change vs agonist alone”: median about 0.99, highest 2% from about 2.6 on). Some of the results follow.

With `COC1=CC2C3Cc4ccc(OC)c(O)c4C2(CCN3C)CC1=O.Cl` (stereo unspecified), the results for the “NF-kB SEAP reporter activity” value with RAW-Dual [1] (setting [3]) and with RAW-Dual [1] (setting [4]) were 0.858 and 0.999, respectively.

As for `COC1=CC2C3Cc4ccc(OC)c(O)c4C2(CCN3C)CC1=O.Cl` (stereo unspecified) (library stock concentration (final ~1000-fold dilution): 10 mM), the “NF-kB SEAP reporter activity” value with RAW-Dual [2] (agonist: LPS (TLR4) 0.1 ug/mL) came to 0.877; in the test with RAW-Dual [2] (setting [5]), 0.884; in the test with RAW-Dual [2] (setting [6]), 1.16; in the test with RAW-Dual [2] (setting [7]) it was 1.09.

In the case of `CC1=CC2Cc3[nH]c(=O)ccc3C3(C1)NCCCC23` (stereo unspecified) (library stock concentration (final ~1000-fold dilution): 10 mM), the “NF-kB SEAP reporter activity” value was found to be 1.12 with RAW-Dual [2] (agonist: LPS (TLR4) 0.1 ug/mL), 0.952 in the test on RAW-Dual [2] (setting [5]), 1.11 in the test with RAW-Dual [2] (setting [6]) and 1.22 in the test on RAW-Dual [2] (setting [7]).

For the compound `CC1=CC2Cc3[nH]c(=O)ccc3C3(C1)NCCCC23` (stereo unspecified), the results for the “NF-kB SEAP reporter activity” value with RAW-Dual [1] (setting [3]) and in the test with RAW-Dual [1] (setting [4]) were 0.933 and 1.03, respectively.

On to `COc1cc(C2OCC3C(c4cc(OC)c(OC5OC(CO)C(O)C(O)C5O)c(OC)c4)OCC23)cc(OC)c1OC1OC(CO)C(O)C(O)C1O` (stereo unspecified), for which the “NF-kB SEAP reporter activity” value in the test on RAW-Dual [1] (setting [3]) worked out at 0.977; in the test with RAW-Dual [1] (setting [4]), 0.979.

Turning to `COc1cc(C2OCC3C(c4cc(OC)c(OC5OC(CO)C(O)C(O)C5O)c(OC)c4)OCC23)cc(OC)c1OC1OC(CO)C(O)C(O)C1O` (stereo unspecified) (library stock concentration (final ~1000-fold dilution): 10 mM), the “NF-kB SEAP reporter activity” value in the test with RAW-Dual [2] (agonist: LPS (TLR4) 0.1 ug/mL) was 1.18; with RAW-Dual [2] (setting [5]), 0.89; with RAW-Dual [2] (setting [6]), 1.11; with RAW-Dual [2] (setting [7]) it was 1.5.

Turning to `Nc1ccncc1`, the “NF-kB SEAP reporter activity” value with RAW-Dual [1] (setting [4]) came to 1.05.

In the case of `Nc1ccncc1` (library stock concentration (final ~1000-fold dilution): 10 mM), the “NF-kB SEAP reporter activity” value in the test on RAW-Dual [2] (agonist: LPS (TLR4) 0.1 ug/mL) is 1.08; with RAW-Dual [2] (setting [5]), 0.999; in the test with RAW-Dual [2] (setting [6]), 0.978; in the test on RAW-Dual [2] (setting [7]) it was 1.08.

Regarding `CC12CCC3C(CCC4CC(O)CCC43C)C1CCC2=O` (stereo unspecified) (library stock concentration (final ~1000-fold dilution): 10 mM), the “NF-kB SEAP reporter activity” value with RAW-Dual [2] (agonist: LPS (TLR4) 0.1 ug/mL) came to 0.978; with RAW-Dual [2] (setting [5]), 0.89; in the test on RAW-Dual [2] (setting [6]), 0.966; in the test with RAW-Dual [2] (setting [7]) it was 1.25.

Regarding `CC12CCC3C(CCC4CC(O)CCC43C)C1CCC2=O` (stereo unspecified), the “NF-kB SEAP reporter activity” value amounted to 1.11 with RAW-Dual [1] (setting [3]) and 1.22 in the test with RAW-Dual [1] (setting [4]).

Consider `CCN1CC2(COC)CCC(OC)C34C5CC6(O)C(OC)CC(OC(C)=O)(C5C6C(=O)c5ccc(OC)cc5)C(C(OC)C23)C14` (stereo unspecified) (library stock concentration (final ~1000-fold dilution): 10 mM), for which the “NF-kB SEAP reporter activity” value in the test on RAW-Dual [2] (agonist: LPS (TLR4) 0.1 ug/mL) stood at 1.22; in the test with RAW-Dual [2] (setting [5]) it was 0.998; with RAW-Dual [2] (setting [6]), 1.36; with RAW-Dual [2] (setting [7]), 1.03.

On to `CCN1CC2(COC)CCC(OC)C34C5CC6(O)C(OC)CC(OC(C)=O)(C5C6C(=O)c5ccc(OC)cc5)C(C(OC)C23)C14` (stereo unspecified), for which the “NF-kB SEAP reporter activity” value was determined as 0.897 with RAW-Dual [1] (setting [3]) and 1.07 in the test with RAW-Dual [1] (setting [4]).

`Fc1cc(F)c2c(c1)C1C=CCC1C(c1cccnc1)N2` (stereo unspecified): the “NF-kB SEAP reporter activity” value was 1.14 in the test with RAW-Dual [1] (setting [3]) and 0.458 in the test with RAW-Dual [1] (setting [4]).

With `Fc1cc(F)c2c(c1)C1C=CCC1C(c1cccnc1)N2` (stereo unspecified) (library stock concentration (final ~1000-fold dilution): 10 mM), the “NF-kB SEAP reporter activity” value worked out at 0.27 in the test on RAW-Dual [2] (agonist: LPS (TLR4) 0.1 ug/mL), 0.315 in the test on RAW-Dual [2] (setting [5]), 0.139 with RAW-Dual [2] (setting [6]) and 0.262 in the test with RAW-Dual [2] (setting [7]).

Consider `CN(CCC(N)CC(=O)NC1C=CC(n2ccc(N)nc2=O)OC1C(=O)O)C(=N)N.Cl` (stereo unspecified), for which the “NF-kB SEAP reporter activity” value in the test on RAW-Dual [1] (library stock concentration (final ~1000-fold dilution): 10 mM water, agonist: Imiquimod (TLR7) […]) turned out to be 1.28; with RAW-Dual [1] (library stock concentration (final ~1000-fold dilution): 10 mM water, agonist: MPLA (TLR4) […]) it was 1.26.

Regarding `CN(CCC(N)CC(=O)NC1C=CC(n2ccc(N)nc2=O)OC1C(=O)O)C(=N)N.Cl` (stereo unspecified) (library stock concentration (final ~1000-fold dilution): 10 mM water), the “NF-kB SEAP reporter activity” value in the test with RAW-Dual [2] (agonist: LPS (TLR4) 0.1 ug/mL) was determined as 1; in the test on RAW-Dual [2] (setting [5]), 1.42; in the test with RAW-Dual [2] (setting [6]), 0.372; with RAW-Dual [2] (setting [7]), 0.781.

As for `CC12CCC3C(CC=C4CC(O)CCC43C)C1CCC2=O` (stereo unspecified) (library stock concentration (final ~1000-fold dilution): 10 mM), the “NF-kB SEAP reporter activity” value with RAW-Dual [2] (agonist: LPS (TLR4) 0.1 ug/mL) was 0.994; in the test on RAW-Dual [2] (setting [5]), 1.05; in the test on RAW-Dual [2] (setting [6]), 1.22; with RAW-Dual [2] (setting [7]), 1.44.
